# Data: PubChem BioAssay AID686978 (National Center for Advancing Translational Sciences (NCATS), 2013)
# The campaign covered roughly 420,000 compounds. About 64,000 (15%) were called active. The shares of active, inactive and inconclusive entries below differ from those in the screen. The call rests on the fitted dose curve; in most records, active means well fitted inhibition curve with a large enough effect; inconclusive means small, poorly fitted or top-dose-only effect; inactive means flat fitted curve, though single readings scatter. Potencies of inconclusive entries are left out as doubtful fits.
# Assay: qHTS for Inhibitors of human tyrosyl-DNA phosphodiesterase 1 (TDP1): qHTS in cells in absence of CPT; further: nearly all actives have a fitted effect of over 55% in size
# Details: DT40 Tdp1-/- hTDP1 cells, no CPT, ATP luminescence, 48 h; activity change, negative = growth inhibition: at 46.2 µM (top of the series) unless noted
# How it was run: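 Growth kinetics read by CellTiter-Glo luminescence after ≥48 hr at 37 °C. Cells: DT40 Tdp1-/- stably carrying human TDP1, 400 per well, compound exposure in the absence of CPT (DMSO vehicle).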
# On the % scale 0 is the no-effect control and ±100 the full control effect; potency means the concentration at half of the fitted maximal effect; tags describe the fitted curve by direction and shape.
SMILES,Potency,"activity change, negative = growth inhibition"
COc1cc(OC)c(C(=O)Nc2cc(Cl)ccc2-n2cncn2)cc1OC,"inconclusive [inhibitor, partial curve]",–
COc1cc(-c2nn3c(Cc4ccccc4)nnc3s2)cc(OC)c1OC,"inconclusive [inhibitor, single point]",–
Cc1nnc(NC(=O)c2c(-c3ccccc3)noc2C)s1,inactive,–
CCCn1c2ccccc2c2cnn(CC(=O)N3CCCC(C(=O)OCC)C3)c(=O)c21 (stereo not given),"inconclusive [inhibitor, single point]",–
CN(C)c1ccc(-c2ccccc2)nn1,–,inconclusive: -31.9% [inhibitor]
COc1cccc(Cn2c(=O)c(-c3ccc(F)cc3)nc3cnc(N4CCNCC4)nc32)c1,active: 23.1 µM,–
Cc1ccc(S(=O)(=O)N2CCN(C(=O)C(C)Cn3cncn3)CC2)cc1 (stereo not given),inactive,–
CCC(CO)Oc1cc(NC(=O)c2ccccc2Cl)c2ncn(C(C)C)c2c1 (stereo not given),inactive,–
CCOc1cccc(NC(=O)C2CC(=O)N(C)C(=Nc3ccccc3)S2)c1 (stereo not given),–,inconclusive: -34.9% [inhibitor]
CCC(Oc1ccccc1)C(=O)N1CCN(S(=O)(=O)c2ccccc2)CC1 (stereo not given),"inconclusive [inhibitor, single point]",–
CCS(=O)(=O)Nc1cc(OC)c(OC)cc1Cc1nccc2cc(OC)c(OC)cc12,–,inconclusive: -34.3% [inhibitor]
CCOc1c(Br)cc(CNc2ccc(N3CCOCC3)cc2)cc1OC,"inconclusive [inhibitor, single point]",–
CC1CCc2sc(C(=O)NCC(C)(C)N3CCOCC3)cc2C1 (stereo not given),"inconclusive [inhibitor, single point]",–
C=CCn1c(CNC(=O)c2ccco2)nnc1SCC(=O)N1c2ccccc2Sc2ccccc21,"inconclusive [inhibitor, partial curve]",–
COC(=O)c1cc(C(=O)NC(C)(C)CC(C)(C)C)cc([N+](=O)[O-])c1,"inconclusive [inhibitor, single point]",–
CCCCN(CC)C(=O)CSc1nc2c(sc3ccccc32)c(=O)n1CCc1ccccc1,active: 5.17 µM,–
CN(C)C(=O)c1ccc(S(=O)(=O)NCc2ccc(Cl)cc2)s1,"inconclusive [inhibitor, partial curve]",–
CCc1ccccc1Nc1sc(C(=O)c2ccccc2)c(N)c1S(=O)(=O)c1ccccc1,"inconclusive [inhibitor, single point]",–
COc1ccc(OC)c(NC(=O)CSc2nc(=O)n(Cc3ccccn3)c3c2CCC3)c1,inactive,–
COc1ccc(CNC(=O)Cn2cccc2C(=O)c2ccccc2)cc1,inactive,–
CCCn1c(CN2CCN(C(=O)OCC)CC2)nc2cc([N+](=O)[O-])ccc21,"inconclusive [inhibitor, single point]",–
COc1ccc(-n2c(=O)c(-c3cn(C)c4ccccc34)nc3cnc(N4CCOCC4)nc32)cc1,inactive,–
Cc1ccc(N(C)C(=O)CCNC(=O)Cn2cnc3ccccc3c2=O)cc1C,inactive,–

SMILES,Potency,"activity change, negative = growth inhibition"
CCCCN1C(Nc2ccccc2)=NC[C@@H]1Cc1ccccc1,"inconclusive [inhibitor, single point]",–
CC1CCCC(NC(=O)CCNC(=O)c2ccccc2Cl)C1C (stereo not given),inactive,–
O=C(Cn1c(=O)c2cccn2c2ccccc21)NCc1cccc(F)c1,"inconclusive [inhibitor, partial curve, poor fit]",–
Cc1ccc(-n2c(SCC(=O)Nc3ccc(N4CCOCC4)cc3)nc3ccccc3c2=O)cc1,"inconclusive [inhibitor, partial curve]",–
CC(=O)N1CCc2c(sc3c2c(=O)n(-c2ccccc2C)c(=O)n3CC(=O)Nc2ccccc2)C1,inactive,–
COC(=O)c1[nH]c2cc(OC)ccc2c1NC(=O)CCN1CCCCC1,inactive,–
Cc1ccccc1NC(=O)Cc1nc(CSc2nnc(-c3ccc4c(c3)OCO4)o2)cs1,"inconclusive [inhibitor, single point]",–
Cc1ccc(C(=O)NNC(=O)c2cc(OCC(F)(F)F)ccc2OCC(F)(F)F)cc1,"inconclusive [inhibitor, single point]",–
Cc1ccc(S(=O)(=O)c2nc(-c3cccs3)oc2N2CCC(C)CC2)cc1,active: 10.3 µM,–
O=[N+]([O-])c1ccc(N/N=C\c2cccnc2)nc1,inactive,–
COc1ccc(C)cc1S(=O)(=O)Nc1ccc(-n2c(C)nc3ccccc3c2=O)cc1,"inconclusive [inhibitor, single point]",–
O=C(NC1CC1)c1cccc(NC(=O)c2cn3ccccc3n2)c1,"inconclusive [inhibitor, single point]",–
COc1ccc(/C=C/CN2CCCC(C(=O)c3cc(F)ccc3F)C2)cc1 (stereo not given),"inconclusive [inhibitor, single point]",–
Cc1nnc(NC(=O)C23CC4CC(C)(CC(C)(C4)C2)C3)s1,–,inconclusive: -31.8% [inhibitor]
Cc1ccc(N(CC(=O)NCC2CCCO2)S(=O)(=O)c2ccccc2)c(C)c1 (stereo not given),inactive,–
CN(Cc1cccc(Cl)c1Cl)C(=O)c1cccc(S(=O)(=O)N2CCN(Cc3ccccc3)CC2)c1,active: 16.4 µM,–
O=c1c2cc(-c3ccccc3)sc2nc2n1N=C(c1ccccc1)CS2,"inconclusive [inhibitor, partial curve]",–
CC1Cc2cc(/C(O)=C3/C(=O)C(=O)N(CCCn4ccnc4)C3c3cccc([N+](=O)[O-])c3)ccc2O1 (stereo not given),inactive,–
CCC1CCc2c(sc(NC(=O)c3cnccn3)c2C(N)=O)C1 (stereo not given),"inconclusive [inhibitor, single point]",–
C=CCNC(=O)c1c(CSc2ccccc2)noc1C(=O)NCc1ccccc1,"inconclusive [inhibitor, single point]",–
O=C(CSc1nnc(CNC(=O)c2c(F)cccc2F)o1)NCc1ccc(F)cc1,inactive,–
CC(C)c1ccccc1NC(=S)NN(Cc1ccccc1)c1ccccc1,"inconclusive [inhibitor, single point]",–
